Several values for one entry are separate records, joined by “and”; a condition that tells them apart may be missing. Equal values may be shown once. In all, about 340,000 compounds went through this assay and about 12,000 (3.5%) were called active. The shares of active, inactive and inconclusive entries below differ from those in the screen. Calls follow the shape of the dose curve; as a rule, active = well fitted inhibition curve with a large enough effect; inconclusive = small, poorly fitted or top-dose-only effect, or another doubt; inactive = no such curve, though single readings can be large or run the other way. Potencies of inconclusive entries are doubtful fits and often do not repeat.
Experiment: qHTS Assay for Inhibitors of Hepatitis C Virus (HCV)
Settings: Huh7.5.1 HCVcc-Cre (HCVcc is cell-culture hepatitis C virus) infection, luciferase reporter, 44 h; series mostly up to 41.8 µM
Summary of the method: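 After 44 h co-culture of compound, cells and HCVcc-Cre (~0.5 moi), substrate is added for 15 min at room temperature and luciferase measured over 15 sec. Cells were seeded at 1,000/well and pre-cultured 4 h.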
Potency is read from the fitted curve at half-maximal effect; tags tell the direction and shape of the fitted curve.

Row | Structure (SMILES) | Potency
1 | CC1CCc2cc(F)ccc2N1C(=O)CSc1nnc2c(n1)[nH]c1ccccc12 (centres undefined) | inconclusive: 10 µM [inhibitor, partial curve]
2 | CCC(C)c1ccc(NC(=S)Nc2ccc(OC)cc2)cc1 (centres undefined) | inconclusive: 11.2 µM [inhibitor, single point]
3 | CC(C)Cc1nnc(NC(=O)CCC(=O)N2CCN(c3ccc([N+](=O)[O-])cc3)CC2)s1 | inconclusive: 22.4 µM [inhibitor, single point]
4 | CCOCCCN(Cc1ccco1)C(=O)c1cc2c(=O)[nH]c3ccc(C)cc3c2s1 | inconclusive: 12.6 µM [inhibitor, partial curve]
5 | O=S(=O)(c1ccccc1)n1ccc(-c2cnc(-c3ccccc3)s2)n1 | inconclusive: 31.6 µM [inhibitor, single point]
6 | CC(C)(C)c1ccc(-n2ncc3c2CCCC3NC(=O)C2(C(N)=O)CC2)cc1 (centres undefined) | inconclusive: 1.78 µM [inhibitor, partial curve, poor fit]
7 | O=C(CSc1ccc2c(c1)OCCO2)Nc1ccc2c(c1)OCO2 | inactive
8 | CNC(=S)N/N=C/c1cn(CCOc2cccc(OC)c2)c2ccccc12 | active: 10 µM
9 | COc1ccc(NC(=O)C(=O)N/N=C/c2cc(C)n(-c3cccc(Cl)c3Cl)c2C)c(OC)c1 | inconclusive: 1.78 µM [inhibitor, partial curve]
10 | O=C(NCC(=O)N1CCN(c2ccccn2)CC1)c1ccc(Br)o1 | inactive
11 | Cc1cccc(Oc2ccc(C(=O)NC3CCSC3=O)cn2)c1C (centres undefined) | inconclusive: 10 µM [inhibitor, partial curve]
12 | COc1ccc(NC(=O)C#Cc2ccccc2)cc1OC | inconclusive: 31.6 µM [inhibitor, single point]
13 | CC(C)C(C)(C#N)NC(=O)CSc1nc2scc(-c3ccccc3)c2c(=O)[nH]1 (centres undefined) | inconclusive: 11.2 µM [inhibitor, single point]
14 | CNc1ccc(C=C2C=Cc3ccccc32)cc1 | inconclusive: 11.2 µM [inhibitor, partial curve]
15 | CCOC(=O)N1CCN(C(=O)c2oc3ccc(S(=O)(=O)N4CC(C)CC(C)C4)cc3c2C)CC1 (centres undefined) | inconclusive: 31.6 µM [inhibitor, single point]
16 | COc1ccc(CCN2C(=O)c3[nH]nc(-c4ccccc4O)c3C2c2ccccc2)cc1OC (centres undefined) | active: 11.2 µM
17 | Cc1cnc(C(=O)OCC(=O)N2CCN(S(=O)(=O)c3ccc(Cl)cc3)CC2)cn1 | inactive
18 | COc1cccc(C2=NC(C)(C)NC(c3ccccc3O)C2)c1 (centres undefined) | inactive
19 | C=CCOc1ccc(CN(C)C(=O)c2ccc(CNS(=O)(=O)c3ccc(C)c(C)c3)cc2)cc1 | inconclusive: 2.51 µM [inhibitor, full curve]
20 | CCCCCC(=O)Nc1ccc(N2CCN(C(=O)CCC)CC2)cc1 | inactive
21 | COC(=O)c1ccc(NC(=O)C(=O)N2CCN(C(=S)Nc3cccc(C)c3C)CC2)cc1 | inactive
22 | COc1ccc(C2(CNC(=O)c3ccc(OC)c([N+](=O)[O-])c3)CCCCC2)cc1OC | inactive
23 | COc1ccccc1OCCC(=O)NNC(=O)c1ccccc1F | inactive

Row | Structure (SMILES) | Potency
24 | CCCn1c(=O)n(C)c(=O)c2c(SCC(=O)NCc3ccco3)nc(C3CC3)nc21 | inactive
25 | CCO[C@@H]1OC(C(=O)NCc2ccccc2)=C[C@H](c2cn(C(C)=O)c3ccccc23)[C@H]1CCCO | inactive
26 | O=c1nc(-c2ccccc2)c2cc(SC(F)F)ccc2[nH]1 | inactive
27 | CCOc1ccccc1OC(=O)CN1C(=O)c2ccccc2C1=O | inactive
28 | COc1ccccc1NC(=O)C(=O)NCCC1CCCCN1S(=O)(=O)c1cccs1 (centres undefined) | inconclusive: 14.1 µM [inhibitor, single point]
29 | Cc1ccccc1OCC(=O)NCC(=O)OCc1ccc(Br)cc1 | inactive
30 | Cc1ccc(N=C2NC(=O)/C(=C/c3cccn3C)S2)cc1C | inactive
31 | Cc1ccc(Cn2ccc(NC(=O)c3nn(C)cc3[N+](=O)[O-])n2)cc1 | inconclusive: 6.31 µM [inhibitor, full curve]
32 | Cc1nonc1NC(=O)CSc1nc2cc(Cl)ccc2c2c1CCCC2 | inconclusive: 2 µM [inhibitor, partial curve]
33 | c1ccc(Cc2nnc3sc(-c4cccnc4)nn23)cc1 | inactive
34 | Cc1ccc(S(=O)(=O)N2CCOCC2)cc1NC(=O)COC(=O)CCc1c[nH]c2ccccc12 | inconclusive: 28.2 µM [inhibitor, single point]
35 | O=C(N/N=C/c1ccc([N+](=O)[O-])s1)c1cccc(Br)c1 | inconclusive: 5.01 µM [inhibitor, full curve]
36 | CCc1ccc(-c2cc(C)no2)cc1S(=O)(=O)N1CCN(c2ccccc2OC)CC1 | inconclusive: 3.98 µM [inhibitor, full curve]
37 | O=C(Nc1cc(S(=O)(=O)Nc2ccccc2Cl)ccc1O)c1cc2c(s1)CCCC2 | inactive
38 | COc1ccc2oc(C(=O)OCC(=O)NC3(C#N)CCCC3)c(C)c2c1 | inconclusive: 31.6 µM [inhibitor, single point]
39 | CCOC(=O)c1c(-c2ccc(OC)cc2)oc2ccc(OCC(N)=O)cc12 | active: 2.24 µM
40 | C#CCOCCOCCOCCNc1nc(N2CCN(C(=O)C(Cc3cc4ccccc4[nH]3)n3cc(C(N)Cc4ccc(O)cc4)nn3)CC2)nc(N2CCN(C(=O)C(CCC(=O)O)n3cc(C(N)C(C)CC)nn3)CC2)n1 (centres undefined) | inactive
41 | Cc1cc(N/N=C/c2ccc(O)c(C)c2O)nc(-c2ccccc2O)n1 | inconclusive: 10 µM [inhibitor, partial curve]
42 | COc1cccc(CC2(CO)CCCN(Cc3cn(C)c4ccccc34)C2)c1 (centres undefined) | inconclusive: 31.6 µM [inhibitor, single point]
43 | COc1ccc(N2C(=O)CC(Sc3ncn[nH]3)C2=O)c(OC)c1 (centres undefined) | active: 15.8 µM
44 | O=C(NCc1ccccn1)c1ccc(Cl)s1 | inactive
45 | Cc1ccc(CNC(=O)c2cc(-c3ccccc3C)n(CC3CC(c4cccc([N+](=O)[O-])c4)=NO3)n2)cc1 (centres undefined) | inconclusive: 25.1 µM [inhibitor, single point]
46 | O=C(C1CCCN(c2ncnc3c2nc2n3CCCCC2)C1)N1CCN(c2ccccc2)CC1 (centres undefined) | inconclusive: 3.98 µM [inhibitor, single point]

Row | Structure (SMILES) | Potency
47 | Cc1ccc(Cl)cc1N1CCN(S(=O)(=O)c2ccc3c(c2)OCCO3)CC1 | inconclusive: 25.1 µM [inhibitor, partial curve]
48 | C=CCN(CC=C)C(=O)C(=O)c1ccn(-c2c(C)csc2C(=O)OC)c1 | inactive
49 | O=C(c1ccccc1)c1nc2ccccc2n(CCCn2c(=O)c(C(=O)c3ccccc3)nc3ccccc32)c1=O | inactive
50 | COc1ccc(OC)c(NC(=O)C2CC(C)=C(C)CC2C(=O)O)c1 (centres undefined) | inactive
51 | O=C(CCl)N(c1ccccc1)C1CCCCC1 | active: 3.98 µM
52 | COC(=O)C1=C(c2cc3ccccc3o2)C[C@@H]2CC[C@H]1N2C(=O)NCc1ccc(F)cc1 | inconclusive: 5.62 µM [inhibitor, partial curve]
53 | O=C(CSc1nnc(-c2ccncc2)n1Cc1ccco1)Nc1nccs1 | inconclusive: 31.6 µM [inhibitor, single point]
54 | Cc1cc(=O)[nH]c2c1c(=O)[nH]n2C1CC(C)N(C)CC1C (centres undefined) | inactive
55 | CCc1cc(C(=O)N2CCN(S(=O)(=O)c3ccccc3F)CC2)sc1C | inconclusive: 31.6 µM [inhibitor, single point]
56 | COc1cc(-c2nnc(-c3ccccc3)o2)cc(OC)c1OC | inconclusive: 3.98 µM [inhibitor, partial curve]
57 | COc1cc2c(N3CCOCC3)cc(O)c(CC(=O)Nc3ccccc3)c2cc1OC | inconclusive: 31.6 µM [inhibitor, single point] and inconclusive: 12.6 µM [inhibitor, partial curve]
58 | CCOc1ccc(CCNS(=O)(=O)c2ccc3c(c2)N(C(C)=O)CCO3)cc1OCC | inactive
59 | O=C(NCc1nc2ccccc2[nH]1)C1=C[C@@H](C2CC2)C[C@@H](OCc2ccc(CO)cc2)O1 | inconclusive: 31.6 µM [inhibitor, single point]
60 | CCCN1C(=O)/C(=C/c2nc3ccccc3c(=O)[nH]2)c2cc(C)ccc21 | inconclusive: 25.1 µM [inhibitor, single point]
61 | CCOc1ccc(Nc2nc3c(C)cccc3cc2C#N)cc1 | inconclusive: 10 µM [inhibitor, partial curve]
62 | CCN(CC)C(=O)CSc1nc(-c2ccccc2)ccc1C#N | inactive
63 | Cc1ccc(S(=O)(=O)NCC(=O)OCc2nnc(-c3ccccc3)o2)cc1C | inactive
64 | COc1cc(CNCCCN2CCOCC2)ccc1OCC(=O)Nc1cccc(C(F)(F)F)c1 | active: 10 µM
65 | O=C(Nc1cc(Br)ccc1O)c1cnn2c(C(F)F)cc(C3CC3)nc12 | inconclusive: 1.78 µM [inhibitor, full curve]
66 | Cc1ccc2cc(CN(Cc3ccc4c(c3)OCO4)Cc3nnnn3Cc3ccco3)c(=O)[nH]c2c1C | inconclusive: 20 µM [inhibitor, single point]
67 | Cc1ccc(-n2c(SCC(=O)NCC3CCCO3)nc3n[nH]c(C)c3c2=N)cc1Cl (centres undefined) | inconclusive: 5.01 µM [inhibitor, partial curve]
68 | Cc1nc(N2CCOCC2)c2c(C)c(C(=O)Nc3ccc(C(F)(F)F)cc3)sc2n1 | inconclusive: 17.8 µM [inhibitor, partial curve, poor fit]
69 | CC(C)c1ccc(C(=O)NC(=S)Nc2ccc3[nH]c(=O)[nH]c3c2)cc1 | inconclusive: 31.6 µM [inhibitor, single point]
